# Laboratory results taken from the supplement of paper PMC8728848.
# Some of the results follow.
# B1: AT1G15820(NC) (Arabidopsis thaliana) (protein)
# chain: MAMAVSGAVLSGLGSSFLTGGKRGATALASGVGDAIAPFSFGSLLGTQLLLMGWVESKRWVDFFNPDSQSVEWATPWSKTAENFANYTGDQGYPGGRFFDPLGLAGKNRDGVYEPDFEKLERLKLAEIKHSRLAMVAMLIFYFEAGQGKTPLGALGL
# How the values were obtained:
# Experiment in all cases: glycan array binding signal (z-score within array); higher = stronger binding
# Details in all cases: glycan notation: IUPAC condensed, linker removed
# [1] = biological target: Gal(b1-4)GlcNAc(b1-3)Gal(b1-4)GlcNAc(b1-6)[Gal(b1-3)]GalNAc
# Outline: (§1)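 Columns mapping to the same glycan were averaged after glycan names were converted to IUPAC-condensed notation. The data come from 3228 arrays in the Consortium for Functional Glycomics database, limited to those with an available protein sequence. Binding is reported as a within-array Z-score averaged across arrays of one protein sequence and across linkers.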
# [2] = biological target: Gal(b1-4)GlcNAc(b1-3)Gal(b1-4)[Fuc(a1-3)]GlcNAc(b1-3)Gal(b1-4)[Fuc(a1-3)]GlcNAc
# Outline: as §1
# [3] = biological target: Gal(b1-4)GlcNAc(b1-3)GalNAc
# Outline: as §1
# [4] = biological target: Gal(b1-4)GlcNAc(b1-3)[Fuc(a1-3)GlcNAc(b1-6)]Gal(b1-4)Glc
# Outline: as §1
# [5] = biological target: Gal(b1-4)GlcNAc(b1-3)[Gal(b1-4)GlcNAc(b1-6)]Gal(b1-4)GlcNAc
# Outline: as §1
# [6] = biological target: Gal(b1-4)GlcNAc(b1-3)[GlcNAc(b1-6)]Gal(b1-4)GlcNAc
# Outline: as §1
# [7] = biological target: Gal(b1-4)GlcNAc(b1-6)Gal(b1-4)GlcNAc
# Outline: as §1
# [8] = biological target: Gal(b1-4)GlcNAc(b1-6)GalNAc
# Outline: as §1
# [9] = biological target: Gal(b1-4)GlcNAc(b1-6)[Gal(b1-3)]GalNAc
# Outline: as §1
# [10] = biological target: Gal(b1-4)GlcNAc(b1-6)[Gal(b1-4)GlcNAc(b1-3)]GalNAc
# Outline: as §1
# Gal(b1-4)GlcNAc6P = biological target: Gal(b1-4)GlcNAc6P
# Outline: as §1
# Gal(b1-6)Gal = biological target: Gal(b1-6)Gal
# Outline: as §1
# Gal3S(b1-3)GalNAc = biological target: Gal3S(b1-3)GalNAc
# Outline: as §1
# Gal3S(b1-3)GlcNAc = biological target: Gal3S(b1-3)GlcNAc
# Outline: as §1
# [11] = biological target: Gal3S(b1-3)[Fuc(a1-4)]GlcNAc
# Outline: as §1
# Gal3S(b1-4)Glc = biological target: Gal3S(b1-4)Glc
# Outline: as §1
# Gal3S(b1-4)Glc6S = biological target: Gal3S(b1-4)Glc6S
# Outline: as §1
# Gal3S(b1-4)GlcNAc = biological target: Gal3S(b1-4)GlcNAc
# Outline: as §1
# [12] = biological target: Gal3S(b1-4)[Fuc(a1-3)]Glc6S
# Outline: as §1
# [13] = biological target: Gal3S(b1-4)[Fuc(a1-3)]GlcNAc
# Outline: as §1
# [14] = biological target: Gal3S(b1-4)[Fuc(a1-3)]GlcNAc6S
# Outline: as §1
# Gal3S4S(b1-4)GlcNAc = biological target: Gal3S4S(b1-4)GlcNAc
# Outline: as §1
# Gal3S6S(b1-4)GlcNAc = biological target: Gal3S6S(b1-4)GlcNAc
# Outline: as §1
# Gal3S6S(b1-4)GlcNAc6S = biological target: Gal3S6S(b1-4)GlcNAc6S
# Outline: as §1
# Gal4S(b1-4)GlcNAc = biological target: Gal4S(b1-4)GlcNAc
# Outline: as §1
# Gal4S6S(b1-4)GlcNAc = biological target: Gal4S6S(b1-4)GlcNAc
# Outline: as §1
# Gal6P(b1-4)GlcNAc = biological target: Gal6P(b1-4)GlcNAc
# Outline: as §1
# Gal6S(b1-3)GlcNAc = biological target: Gal6S(b1-3)GlcNAc
# Outline: as §1
# Gal6S(b1-3)GlcNAc6S = biological target: Gal6S(b1-3)GlcNAc6S
# Outline: as §1
# Gal6S(b1-4)Glc = biological target: Gal6S(b1-4)Glc
# Outline: as §1
# Gal6S(b1-4)Glc6S = biological target: Gal6S(b1-4)Glc6S
# Outline: as §1
# Gal6S(b1-4)GlcNAc = biological target: Gal6S(b1-4)GlcNAc
# Outline: as §1
# Gal6S(b1-4)GlcNAc6S = biological target: Gal6S(b1-4)GlcNAc6S
# Outline: as §1
# GalNAc(a1-3)Gal = biological target: GalNAc(a1-3)Gal
# Outline: as §1
# GalNAc(a1-3)GalNAc = biological target: GalNAc(a1-3)GalNAc
# Outline: as §1
# [15] = biological target: GalNAc(a1-3)GalNAc(b1-3)Gal(a1-4)Gal(b1-4)Glc
# Outline: as §1
# [16] = biological target: GalNAc(a1-3)GalNAc(b1-3)Gal(a1-4)Gal(b1-4)GlcNAc
# Outline: as §1
# GalNAc(b1-3)Gal = biological target: GalNAc(b1-3)Gal
# Outline: as §1
# [17] = biological target: GalNAc(b1-3)Gal(a1-4)Gal(b1-4)GlcNAc
# Outline: as §1
# [18] = biological target: GalNAc(b1-3)Gal(a1-4)Gal(b1-4)GlcNAc(b1-3)Gal(b1-4)Glc
# Outline: as §1
# [19] = biological target: GalNAc(b1-3)Gal(a1-6)Gal(b1-4)Glc
# Outline: as §1
# GalNAc(b1-3)GalNAc = biological target: GalNAc(b1-3)GalNAc
# Outline: as §1
# GalNAc(b1-3)GlcNAc = biological target: GalNAc(b1-3)GlcNAc
# Outline: as §1
# GalNAc(b1-4)Gal(b1-4)Glc = biological target: GalNAc(b1-4)Gal(b1-4)Glc
# Outline: as §1
# GalNAc(b1-4)GlcNAc = biological target: GalNAc(b1-4)GlcNAc
# Outline: as §1
binder,measurement,setting,value
B1,glycan array binding signal (z-score),[1],0.544
same,glycan array binding signal (z-score),[2],-0.266
same,glycan array binding signal (z-score),[3],-0.348
same,glycan array binding signal (z-score),[4],-0.289
same,glycan array binding signal (z-score),[5],-0.416
same,glycan array binding signal (z-score),[6],-0.29
same,glycan array binding signal (z-score),[7],-0.003
same,glycan array binding signal (z-score),[8],0.644
same,glycan array binding signal (z-score),[9],0.249
same,glycan array binding signal (z-score),[10],0.457
same,glycan array binding signal (z-score),Gal(b1-4)GlcNAc6P,-0.42
same,glycan array binding signal (z-score),Gal(b1-6)Gal,-0.3
same,glycan array binding signal (z-score),Gal3S(b1-3)GalNAc,0.95
same,glycan array binding signal (z-score),Gal3S(b1-3)GlcNAc,0.265
same,glycan array binding signal (z-score),[11],-0.133
same,glycan array binding signal (z-score),Gal3S(b1-4)Glc,0.329
same,glycan array binding signal (z-score),Gal3S(b1-4)Glc6S,0.089
same,glycan array binding signal (z-score),Gal3S(b1-4)GlcNAc,0.198
same,glycan array binding signal (z-score),[12],0.578
same,glycan array binding signal (z-score),[13],-0.539
same,glycan array binding signal (z-score),[14],0.071
same,glycan array binding signal (z-score),Gal3S4S(b1-4)GlcNAc,1.45
same,glycan array binding signal (z-score),Gal3S6S(b1-4)GlcNAc,0.403
same,glycan array binding signal (z-score),Gal3S6S(b1-4)GlcNAc6S,1
same,glycan array binding signal (z-score),Gal4S(b1-4)GlcNAc,0.014
same,glycan array binding signal (z-score),Gal4S6S(b1-4)GlcNAc,-0.442
same,glycan array binding signal (z-score),Gal6P(b1-4)GlcNAc,-0.514
same,glycan array binding signal (z-score),Gal6S(b1-3)GlcNAc,-0.241
same,glycan array binding signal (z-score),Gal6S(b1-3)GlcNAc6S,-0.611
same,glycan array binding signal (z-score),Gal6S(b1-4)Glc,-0.086
same,glycan array binding signal (z-score),Gal6S(b1-4)Glc6S,-0.425
same,glycan array binding signal (z-score),Gal6S(b1-4)GlcNAc,-0.34
same,glycan array binding signal (z-score),Gal6S(b1-4)GlcNAc6S,-0.036
same,glycan array binding signal (z-score),GalNAc(a1-3)Gal,-0.448
same,glycan array binding signal (z-score),GalNAc(a1-3)GalNAc,-0.162
same,glycan array binding signal (z-score),[15],-0.146
same,glycan array binding signal (z-score),[16],-0.435
same,glycan array binding signal (z-score),GalNAc(b1-3)Gal,-0.341
same,glycan array binding signal (z-score),[17],1.78
same,glycan array binding signal (z-score),[18],-0.057
same,glycan array binding signal (z-score),[19],-0.443
same,glycan array binding signal (z-score),GalNAc(b1-3)GalNAc,-0.379
same,glycan array binding signal (z-score),GalNAc(b1-3)GlcNAc,-0.221
same,glycan array binding signal (z-score),GalNAc(b1-4)Gal(b1-4)Glc,-0.588
same,glycan array binding signal (z-score),GalNAc(b1-4)GlcNAc,7.2
